Measurements: PubChem BioAssay AID485360 (National Center for Advancing Translational Sciences (NCATS), 2010)
Where “and” joins values, the source holds several entries; their conditions need not be identical. Equal values may be shown once. The campaign covered roughly 230,000 compounds. About 1,500 (0.65%) were called active. This list was built around the results that the source calls inconclusive (neither active nor inactive); the mix of calls is not that of the screen. Calls follow the shape of the dose curve; as a rule, active = well fitted inhibition curve with a large enough effect; inconclusive = small, poorly fitted or top-dose-only effect; inactive = no such curve, though single readings can be large or run the other way. A potency beside an inconclusive call is a rough fit, not a confirmed value.

Biological target: Lethal(3)malignant brain tumor-like protein 1 (Homo sapiens) (UniProt Q9Y468)
Assay: qHTS Assay for the Inhibitors of L3MBTL1; also: nearly all actives have a fitted effect of over 60% in size
Details: AlphaScreen L3MBTL1–H3K9me1 peptide binding; activity, negative = inhibition: at 57.1 µM (top of the series)
Method in brief: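 L3MBTL1 50 nM + b-AHA-H3(1-15)K9me1 75 nM, 30 min RT; compound added, 30 min RT; streptavidin donor/Ni-chelate acceptor beads 10 ug/mL each final, 30 min RT dark; AlphaScreen read.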
% is scaled to controls: 0 for no effect and ±100 for the full control effect; potency is read from the fitted curve at half-maximal effect; tags tell the direction and shape of the fitted curve.

Chain of UniProt Q9Y468 (Q9Y468 whole entry, looked up): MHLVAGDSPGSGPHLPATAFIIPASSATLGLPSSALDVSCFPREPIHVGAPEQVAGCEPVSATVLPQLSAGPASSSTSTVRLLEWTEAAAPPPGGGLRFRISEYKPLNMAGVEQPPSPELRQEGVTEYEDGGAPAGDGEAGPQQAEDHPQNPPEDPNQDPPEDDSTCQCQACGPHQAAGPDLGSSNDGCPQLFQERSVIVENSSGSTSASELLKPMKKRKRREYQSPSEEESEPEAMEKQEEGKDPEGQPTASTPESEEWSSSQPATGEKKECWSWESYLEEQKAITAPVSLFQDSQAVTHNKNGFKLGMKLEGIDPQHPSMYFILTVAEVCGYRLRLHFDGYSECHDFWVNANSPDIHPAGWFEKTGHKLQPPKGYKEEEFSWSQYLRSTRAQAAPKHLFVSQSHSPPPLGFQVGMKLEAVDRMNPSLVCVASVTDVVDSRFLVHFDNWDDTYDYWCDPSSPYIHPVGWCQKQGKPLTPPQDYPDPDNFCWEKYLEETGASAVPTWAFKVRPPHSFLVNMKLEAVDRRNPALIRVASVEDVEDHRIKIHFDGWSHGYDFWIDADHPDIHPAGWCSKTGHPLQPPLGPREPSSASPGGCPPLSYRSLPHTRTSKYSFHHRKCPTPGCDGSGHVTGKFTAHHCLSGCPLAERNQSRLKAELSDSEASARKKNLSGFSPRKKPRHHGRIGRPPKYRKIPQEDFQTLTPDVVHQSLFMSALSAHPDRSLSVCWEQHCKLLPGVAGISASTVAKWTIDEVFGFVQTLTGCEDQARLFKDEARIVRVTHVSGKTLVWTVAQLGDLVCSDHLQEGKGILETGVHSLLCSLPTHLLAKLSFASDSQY

**Q.** Which “activity, negative = inhibition” value does the source give for CCc1ccc(C(=O)NNc2ccc(F)cc2)cc1 here?
**A.** inactive: 8.44%

**Q.** CC(=O)NC(c1ccc(C)cc1)c1cc([N+](=O)[O-])c2cccnc2c1O (stereo unspecified) was tested. Which Potency did it give?
**A.** active: 5.01 µM

**Q.** Which Potency does the source give for NNC(=O)c1ccc(-c2cccc([N+](=O)[O-])c2)o1 here?
**A.** inconclusive: 35.5 µM [inhibitor, single point]

**Q.** With Cc1[nH]n(-c2ccccc2)c(=O)c1N=Nc1cccc([N+](=O)[O-])c1 as the compound, how does the “activity, negative = inhibition” value read?
**A.** inactive: -2.67%

**Q.** With COC(=O)/C(N=Nc1cccc(C(F)(F)F)c1)=C(\C)O as the compound, how does the “activity, negative = inhibition” value read?
**A.** inactive: -7.64%

**Q.** Which “activity, negative = inhibition” value does the source give for Cc1ccc(S(=O)(=O)N/N=C2/CCCCC2C2CCCCC2)cc1[N+](=O)[O-] (stereo unspecified) here?
**A.** inactive: -4.54%

**Q.** Which “activity, negative = inhibition” value does the source give for Cc1ccc(SCC(=O)Nc2ccc(S(=O)(=O)Nc3ncccn3)cc2)cc1 here?
**A.** inactive: -1.94%

**Q.** With Cc1cc(OCCCCNC(C)C)cc(C(C)C)c1 as the compound, how does the “activity, negative = inhibition” value read?
**A.** inactive: 11.6%

**Q.** CC1CCCN(CCCOc2ccc([N+](=O)[O-])cc2)C1 (stereo unspecified) was tested. Which “activity, negative = inhibition” value did it give?
**A.** inactive: -7.09%

**Q.** How did the Potency turn out when Nc1ccc(Cc2ccccn2)cc1 was run?
**A.** inconclusive: 39.8 µM [inhibitor, single point]

**Q.** With CC(C)C(NC(=O)OCc1ccccc1)C(=O)OCC(=O)NCc1ccco1 (stereo unspecified) as the compound, how does the Potency read?
**A.** inconclusive: 28.2 µM [inhibitor, single point]

**Q.** With O=C(NNC(=S)NC(=O)c1cccnc1)c1ccc(Cl)cc1 as the compound, how does the Potency read?
**A.** inconclusive: 39.8 µM [inhibitor, single point]

**Q.** With COc1ccccc1NS(=O)(=O)c1ccc(C(=O)OCC(=O)NCc2ccco2)cc1 as the compound, how does the Potency read?
**A.** inconclusive: 35.5 µM [inhibitor, single point]

**Q.** With NC1=NC(=O)/C(=C\c2ccc(O)c([N+](=O)[O-])c2)S1 as the compound, how does the “activity, negative = inhibition” value read?
**A.** inactive: 0.442%

**Q.** CCCCC(=O)Nc1ccc(C(=O)NNC(=O)CCc2ccccc2)cc1 was tested. Which “activity, negative = inhibition” value did it give?
**A.** inactive: -10.1%

**Q.** For O=C(NC(=S)Nc1ccccc1[N+](=O)[O-])c1ccccc1, which Potency is on record?
**A.** inconclusive: 39.8 µM [inhibitor, partial curve]

**Q.** COc1cc(OC)cc(C(=O)N[C@H](C(=O)OCC(=O)NC(=O)c2cccn2C)C(C)C)c1 was tested. Which Potency did it give?
**A.** inconclusive: 10 µM [inhibitor, partial curve, poor fit]

**Q.** With c1coc(-c2ccnc3nc(-n4cccc4)nn23)c1 as the compound, how does the Potency read?
**A.** inconclusive: 3.98 µM [inhibitor, single point]

**Q.** With Cc1cc2c(s1)c1c(n2C)C(=O)N(Cc2ccccc2F)C1 as the compound, how does the Potency read?
**A.** inconclusive: 25.1 µM [inhibitor, partial curve]

**Q.** Cc1ccc(N2C(=O)[C@@H]3[C@H](C2=O)C2c4ccccc4C=CN2[C@@H]3C(=O)c2ccco2)cc1 (stereo partly specified) was tested. Which “activity, negative = inhibition” value did it give?
**A.** inactive: -7.75%

**Q.** How did the “activity, negative = inhibition” value turn out when Cc1nn(CC(=O)NNC(=O)c2ccccc2F)c([N+](=O)[O-])c1Br was run?
**A.** inactive: 9.28%

**Q.** How did the Potency turn out when CCOC(=O)C1(Cc2ccccc2C(F)(F)F)CCN(C(C)CCn2cccn2)CC1 (stereo unspecified) was run?
**A.** inconclusive: 20 µM [inhibitor, single point]

**Q.** O=C(CSc1nc2cc(Cl)ccc2s1)NC(=O)NCc1ccco1 was tested. Which Potency did it give?
**A.** inconclusive: 25.1 µM [inhibitor, single point]

**Q.** For COc1ccccc1Nc1nnc(SCC2CCCCO2)s1 (stereo unspecified), which Potency is on record?
**A.** inconclusive: 44.7 µM [inhibitor, partial curve, poor fit]

**Q.** For CCOC(=O)C1=C(C)N=c2s/c(=C/c3cccc([N+](=O)[O-])c3O)c(=O)n2C1c1ccc(OC)cc1OC (stereo unspecified), which Potency is on record?
**A.** inconclusive: 2.82 µM [inhibitor, single point]

**Q.** For O=C(/C=C\c1ccccc1)Oc1cccc2cccnc12, which Potency is on record?
**A.** inconclusive: 14.1 µM [inhibitor, partial curve]

**Q.** CCOc1ccc(CC(=O)C2C(=O)CC(C)(C)CC2=O)cc1OCC was tested. Which “activity, negative = inhibition” value did it give?
**A.** inactive: 5.34%

**Q.** CCN1CCN(c2oc(COc3ccc(Cl)cc3)nc2C#N)CC1 was tested. Which Potency did it give?
**A.** inconclusive: 7.94 µM [inhibitor, partial curve]

**Q.** COC(=O)C1SCC2C(=O)N(Cc3ccc(Cl)c(Cl)c3)CC(=O)N21 (stereo unspecified) was tested. Which Potency did it give?
**A.** inconclusive: 0.158 µM [inhibitor, full curve, poor fit]

**Q.** Cc1ccc2c(c1)c1c(n2CC(O)CN2CCC(C)CC2)CCCC1 (stereo unspecified) was tested. Which Potency did it give?
**A.** inconclusive: 17.8 µM [inhibitor, partial curve]

**Q.** CCOC(=O)c1c(-c2ccccc2)csc1NC(=O)/C(C#N)=C/c1ccc(O)c(OC)c1 was tested. Which Potency did it give?
**A.** inconclusive: 25.1 µM [inhibitor, single point]

**Q.** Which Potency does the source give for O=C(Nc1cccnc1Cl)c1ccc(=O)oc1 here?
**A.** inconclusive: 28.2 µM [inhibitor, single point]

**Q.** With O=C(COC(=O)C1CC(=O)N(c2ccc3c(c2)OCCO3)C1)Nc1ccc2c(c1)CCC2 (stereo unspecified) as the compound, how does the Potency read?
**A.** inconclusive: 0.794 µM [inhibitor, single point]

**Q.** How did the Potency turn out when CCOC(=O)c1cc2c(=O)n3ccccc3nc2n(Cc2ccco2)c1=NC(=O)c1ccc(OC)cc1 was run?
**A.** inconclusive: 10 µM [inhibitor, partial curve, poor fit]

**Q.** Which Potency does the source give for Cc1nc2sc(C(c3ccco3)N3CCN(C(c4ccccc4)c4ccccc4)CC3)c(O)n2n1 (stereo unspecified) here?
**A.** inconclusive: 17.8 µM [inhibitor, single point]

**Q.** For C=CCN(CC=C)C(=O)Cc1ccc(F)cc1, which “activity, negative = inhibition” value is on record?
**A.** inactive: -3.03%

**Q.** Which Potency does the source give for O=C(N/N=C/c1cccc2nccnc12)c1ccccc1O here?
**A.** inconclusive: 20 µM [inhibitor, partial curve]

**Q.** How did the “activity, negative = inhibition” value turn out when COc1ccccc1N1CCN(CC(=O)Nc2ccc(S(=O)(=O)N3CCCCCC3)cc2)CC1 was run?
**A.** inactive: -11.8%

**Q.** C=CCNc1ccc(N2C(=O)C3CCC(C)CC3C2=O)cc1[N+](=O)[O-] (stereo unspecified) was tested. Which Potency did it give?
**A.** inconclusive: 20 µM [inhibitor, partial curve]

**Q.** For C=C(C)C1CC=C(C)/C(=N/NC(=O)COc2ccc(Cl)cc2)C1 (stereo unspecified), which Potency is on record?
**A.** inconclusive: 6.31 µM [inhibitor, single point]

**Q.** How did the Potency turn out when COC(=O)c1ccc(N2C(=O)C3CC=CC(C)C3C2=O)cc1 (stereo unspecified) was run?
**A.** inconclusive: 3.16 µM [inhibitor, partial curve]

**Q.** Which Potency does the source give for COc1ccc(N2CCN(C(c3cccc(OC)c3OC)c3nnnn3C3CCCC3)CC2)cc1 (stereo unspecified) here?
**A.** inconclusive: 22.4 µM [inhibitor, single point]

**Q.** CC1CCCC(NC(=O)COC(=O)c2n[nH]c3ccccc23)C1C (stereo unspecified) was tested. Which “activity, negative = inhibition” value did it give?
**A.** inactive: 2.33%

**Q.** Which Potency does the source give for O=C(CNc1cccc2ccccc12)N/N=C/C=C/c1ccco1 here?
**A.** inconclusive: 25.1 µM [inhibitor, partial curve, poor fit]

**Q.** Cc1ccc(Sc2ccc(CN3CCCCC3)cc2[N+](=O)[O-])cc1 was tested. Which Potency did it give?
**A.** inconclusive: 10 µM [inhibitor, partial curve]

**Q.** With Oc1c(CN2CCCCC2)cc(COCc2ccccc2)c2cccnc12 as the compound, how does the Potency read?
**A.** active: 35.5 µM and active: 12.6 µM

**Q.** O=C(CNCc1ccco1)Nc1ccc(N2CCCCCC2)cc1 was tested. Which Potency did it give?
**A.** inconclusive: 39.8 µM [inhibitor, single point]

**Q.** Which “activity, negative = inhibition” value does the source give for COc1cc2[nH]c(=S)nc(NC3CCCC3)c2cc1OC here?
**A.** inactive: 12.4%

**Q.** Which Potency does the source give for CC1=C(C(=O)Nc2ccccc2)C(c2ccc(Cl)cc2)n2c(s/c(=C/c3cccc(OCC(=O)O)c3)c2=O)=N1 (stereo unspecified) here?
**A.** inconclusive: 39.8 µM [inhibitor, single point]

**Q.** Which “activity, negative = inhibition” value does the source give for CN1CCN(c2nc3c(c(=O)n(C)c(=O)n3C)n2Cc2cccc(Br)c2)CC1 here?
**A.** inactive: -1.96%

**Q.** COc1ccc(N2C(=O)CC(Sc3nnnn3-c3ccc(F)cc3)C2=O)cc1 (stereo unspecified) was tested. Which “activity, negative = inhibition” value did it give?
**A.** inactive: 19.9%

**Q.** COc1cc(NC(=O)CSc2ncnc3scc(-c4ccccc4)c23)c(C(=O)O)cc1OC was tested. Which Potency did it give?
**A.** inconclusive: 5.01 µM [inhibitor, single point]

**Q.** Which “activity, negative = inhibition” value does the source give for O=C(COc1ccccc1Cl)NNC(=O)c1ccc2nc[nH]c2c1 here?
**A.** inactive: -9.42%

**Q.** Which “activity, negative = inhibition” value does the source give for O=C(CSc1ccsc1[N+](=O)[O-])NCc1ccccc1 here?
**A.** inactive: -26.5%

**Q.** Which Potency does the source give for COc1cccc(CNc2ccc(S(=O)(=O)N3CCCC3)cn2)c1 here?
**A.** inconclusive: 1.41 µM [inhibitor, single point]

**Q.** N#Cc1c(-c2ccco2)cc(-c2cccnc2)nc1N was tested. Which “activity, negative = inhibition” value did it give?
**A.** inactive: -16.3%

**Q.** How did the Potency turn out when Cc1nonc1-c1csc(N)n1 was run?
**A.** inconclusive: 0.199 µM [inhibitor, partial curve, poor fit]

**Q.** For O=C(C1CCN(c2nnc(-n3cccc3)s2)CC1)N1CCN(Cc2ccc3c(c2)OCO3)CC1, which Potency is on record?
**A.** inconclusive: 39.8 µM [inhibitor, partial curve]

**Q.** CN(C)/C=C1\N=C(c2ccc3c(c2)OCO3)OC1=O was tested. Which Potency did it give?
**A.** inconclusive: 20 µM [inhibitor, partial curve]

**Q.** Which Potency does the source give for CCN1CCN(Cc2ccc(NC(=O)c3cc(NC(=O)c4cncc(-c5cccs5)c4)cc(OC)c3)cc2C(F)(F)F)CC1 here?
**A.** inconclusive: 6.31 µM [inhibitor, single point]

**Q.** With CCn1c(CNc2nc(-c3ccccc3)cs2)nnc1SCC(=O)NCc1ccco1 as the compound, how does the Potency read?
**A.** inconclusive: 35.5 µM [inhibitor, single point]

**Q.** Which Potency does the source give for O=C(O)CCc1nn2cc(-c3ccccc3)nc2[nH]c1=O here?
**A.** inconclusive: 6.31 µM [inhibitor, single point]

**Q.** How did the Potency turn out when Nc1nnc2c(n1)CCCC2 was run?
**A.** inconclusive: 39.8 µM [inhibitor, single point]

**Q.** For COCc1[nH]c(=S)c(C#N)cc1C(=O)OC, which “activity, negative = inhibition” value is on record?
**A.** inactive: -4.95%

**Q.** With O=C1CCCc2[nH]c(-c3ccccc3)nc21 as the compound, how does the Potency read?
**A.** inconclusive: 39.8 µM [inhibitor, single point]

**Q.** Which “activity, negative = inhibition” value does the source give for CCOc1cc(/C=N/Nc2nn3cnnc3c3ccccc23)ccc1O here?
**A.** inactive: -0.726%

**Q.** With C=CCc1c(C)nc(C)nc1N/N=C/c1ccccc1O as the compound, how does the Potency read?
**A.** inconclusive: 22.4 µM [inhibitor, partial curve]

**Q.** O=C(Nc1nc(-c2ccccn2)cs1)c1cc2ccccc2o1 was tested. Which Potency did it give?
**A.** active: 20 µM

**Q.** How did the Potency turn out when COc1ccc(C(=O)NCC(c2cccs2)N2CCc3ccccc32)cc1OC (stereo unspecified) was run?
**A.** inconclusive: 39.8 µM [inhibitor, single point]

**Q.** With COc1ccc(O)c(/C=N/NC(=S)Nc2cccc(S(=O)(=O)N(C)C)c2)c1 as the compound, how does the Potency read?
**A.** active: 10 µM

**Q.** O=C(Nc1cccc(-c2nnc(-c3ccccc3)o2)c1)C1CCCCC1 was tested. Which Potency did it give?
**A.** inconclusive: 5.01 µM [inhibitor, partial curve, poor fit]
